Read counts are not given, so values of variants with three or more changes are uncertain.

Sequences and labels used below:
B1: OR4K15 (parent)
chain: GUUAACGGUCAUAGGCCAUGGAAACUAGGAGCACCAUUUCGCUGCCAGUGAAGAAAUGAACAAAGAAAAUCUGGGCCAGGCAGGCAUCAAAAGAAAUAGUCUUGCGCUCAACCAGAAAGUCUGUAAUCAUUUUAAGGGUA

Variants of B1 are the subject of this series. Nature of the series: self-cleavage, relative activity (ratio to wild type); higher = more cleavage; in vitro, sequencing; the parent is a self-cleaving ribozyme.
As to A78G A114U U122C, the self-cleavage came out at 0.02.

Take U70C A82G U122C: the self-cleavage came to 0.11. The value for A78U A116G U130C was 0.03. The result for C76U G83U U87C U102C A116G reads 0.11. The result for U72A A91U A94U A110G reads 0.07.

On to C71A U120A A125G, for which the self-cleavage was 0.14. The value for U72C U103A G123A was 0.09. The result for A82G A94G A125G reads 0.16; that for U70C A82G A118C, 0.03; that for A78G A90G A118G, 0.03. The value for A78G U103A A117G was 0.13; that for A68G A111G A126G was 0. Regarding U72A A98U U132A, the self-cleavage was found to be 0.1.

As to A78U U97A U122C, the self-cleavage was found to be 0.29. Take A68G U87C A129U: the self-cleavage is 0.07. The value for G79U U103C U130C was 0.03; that for G75A A86G U103A was 0.09.

Consider G84A A89G A110U, for which the self-cleavage is 1.43. The value for A68G A114C A125G was 0; that for A78G A90U U133C was 0.25; that for A69G A86G A116G A117G was 0.47.

Turning to A78G C105G A118G U120C U122C, the self-cleavage came out at 0.01.

As for A82G A117G A129U, the self-cleavage turned out to be 0.14. The value for G75A A89G A92G was 0.11.

On to A69G U124C A135U, for which the self-cleavage amounted to 0.67. As to A78U U124A A126G, the self-cleavage came out at 0.3.

Turning to A69G U72C A96G, the self-cleavage worked out at 0.25.

Take A82G A118C U132C: the self-cleavage is 0.33. The value for A67G U70C A91G A110U was 0.18; that for A82G G104A A110U A129G was 0; that for U72A U122C A135G was 0.13. Consider G80U U130G U131C, for which the self-cleavage amounted to 0.05. The value for A69G A78U U102C was 1.32.

For the variant C77U G106A A118G, the self-cleavage is 0. The value for A78U A117G U131C was 0.17; that for G75A A82U A110G U132C was 0.

For A78U A82G C121A U122C, the self-cleavage was 0.12. The result for A82G A91G A96U U127C reads 0.03.

As to U72C G119C G123A, the self-cleavage is 0.08.

In the case of A69G A111G U122C, the self-cleavage came to 0.01. The value for A82U A90G A94G was 0.28; that for A78G U97C A126G was 0.12. A82G A90C A110U: the self-cleavage was 0.44.

For A69G A98G A129U, the self-cleavage was 0.19. The result for G80A A89G A90U reads 0.1; that for A78U A89G A91C A110G, 0.03; that for A68G A91G U122A U131C, 0.15. For the variant A68G U100C A126G, the self-cleavage is 0.99. The result for U72G A92G A110U A129U reads 0.11. Take A67G U72C U132A: the self-cleavage came out at 0.18. The value for U72A A94G A110U A117G A135G was 0.1. The value for C71U A82U A91G was 0.14. The value for A67G A91G U103C U132C was 0.64; that for A68G A118G U130C was 0.74; that for A78G U122C U131C was 0.16. Consider A68G U87A A125G U132A, for which the self-cleavage was determined as 0.41. The result for U72A A86G A110G U124A reads 0.03; that for A67G C88U A117U, 0.54; that for U70C A78U U130C, 0.14. The value for A82U A117G A118U A126U was 0.1; that for U70C G123A U130C was 0.26. Regarding A68G U103C U139C, the self-cleavage was determined as 1.16. The value for C71U U72C U87A U127A was 0.41; that for A68G A91G A118G U131C was 0.37. The value for A69U U70C A86U A98G A116G G119U U131C was 1.66. The value for A82G A91G A116U was 0.01; that for A82G A94G A96G U102A U130C was 0.05. U72C U102C A114U U127A: the self-cleavage was determined as 0.03. The result for A68G A90G A110G reads 0.11; that for G73A U122A A134U, 0.2.

For A67U U87C A118G, the self-cleavage came to 0.79. The value for C77U A125G A129U was 0.68. The result for A68G U100C A116G reads 1.46; that for U72C A94G A135G, 0.19. As to G74A A98G U130A, the self-cleavage is 0.02. The result for A69G A96G A117G reads 1.72; that for A67G U103A U108C A110G, 0. The result for G73A A111G A114G reads 0.02; that for C71A A110G A111G U131C, 0.01; that for G80A A90G A92G U102C A111G, 0. The result for A82U U87C A98G U108A A114G U130G reads 0.

For A68G A69U A90G, the self-cleavage is 0.34. The value for A68G A86G A96G U132C was 1.84; that for A78G A92G A94G A129G was 0.11. The value for A68G U108C A118G was 0. For the variant A78G A94U U97A, the self-cleavage was 0.11. The value for U70A A90U U133A was 1.26; that for A69G A82U U139C A140G was 0.23. Regarding U72G A78U A89U, the self-cleavage came out at 0.2.

On to G75C U100C A129G, for which the self-cleavage came to 0.08. The result for A69G U87C U108C A118G reads 0. The result for A68G A82G A96G reads 0.66; that for A82G U108C A110U, 0.01; that for A67G U103C C128U, 0.22. On to A78U A89U U131C, for which the self-cleavage was determined as 0.08. On to U70A A117G U130C U131C, for which the self-cleavage turned out to be 0.41. The value for A69G A78U A114C was 0. The value for G74A A78G U100C A117G was 0.23; that for A82G A95G G136A was 0.99; that for A78U A91U A114C was 0.02.

In the case of U72C U87C U108C, the self-cleavage was 0. Consider U72A U87C A92U A117G, for which the self-cleavage was 0.18. The value for U70C G75C A94G A116G was 0.03; that for A78U A82G A95G A96G U100C A116G was 0.21; that for A82G A89G A117G U120A was 0.55. The result for U70C U130C U131C reads 0.21; that for A82C A90G U108C, 0.02.

With A68U A116G A129G, the self-cleavage amounted to 0.51. Consider U72C A86G U102C, for which the self-cleavage came to 0.04. The value for A78U U87C U130C A140G was 0.13.

As for G75A U120C U130C U132C, the self-cleavage turned out to be 0.05.

Turning to A78G A94G U102C U120C, the self-cleavage came to 0.21. The result for U72C U131A A134G reads 0.09. As to A68G U70G U108C U127A, the self-cleavage was 0.06. G74U U97A A110C: the self-cleavage stood at 0.02. Turning to C77U A89G A116G A118G, the self-cleavage stood at 1.2. The result for A69G A94G U100C A117G reads 2.46; that for A69G A86G U108C, 0.01. The value for A67G U72C U87C A94G was 0.31; that for U72A A91G U120C was 0.07. For U72C A90G A91G U122G, the self-cleavage came to 0.25. The result for U70C A78G U87A U122C reads 0.01; that for A67U A90G A116G, 1.35; that for A69G U108C A110G, 0. The value for A78U A91G C105A was 0.01. The value for A78U C81G U108G was 0.01; that for A68G A118U U122C was 0.55. For the variant U70C A116G U127C, the self-cleavage stood at 1.65. On to A68G U70C U103C A117G, for which the self-cleavage worked out at 0.76. A69G A90U A96U: the self-cleavage was determined as 1.34. The result for A69G A90C A111G reads 0.03. The result for A82G U102C U103A reads 0.65; that for A82G U87C A126G, 0.27. Regarding U70C G80U U103C A118G, the self-cleavage was 0.04. The value for A82U A89G G93A was 0.2; that for A69G U100C A126G U131C U132C was 2.13. The value for A69G U72A U102C was 0.26. U70C A111G A117G: the self-cleavage is 0.05.

Turning to A82G A89G U100C, the self-cleavage stood at 1.99.

For the variant U72A U100C U139A, the self-cleavage is 0.73. Take A69G A82U A90G A110G: the self-cleavage was found to be 0.02. Regarding A68G A78U A110G, the self-cleavage was 0.07. For the variant A69U U87C U108C, the self-cleavage turned out to be 0. As to A78G A95G U127C, the self-cleavage came to 0.27. A68U U108C A111G U139A: the self-cleavage came to 0.01. Regarding U70C A86U A96G, the self-cleavage came out at 0.53. The value for G83U U102C A111G A126G was 0; that for A82U A110C A116G was 0.05. The result for A68G A98G C105G reads 0.01. The result for A67G U87A A94G U102A reads 1.37; that for A68G A78U A95G, 1.33; that for A68G A82G A111G U122A, 0.05. For A78G U103C A111G, the self-cleavage was 0.02. The value for U70C A86U A95G was 0.93; that for C81G A86U U130C U132C U139C was 0.24; that for C81G U108C A117G was 0.01. U72A A90U U108C G123A: the self-cleavage is 0.01. The value for A69G A98U A114G was 0.75; that for A82G G104U A116U was 0; that for G80A U103A U122C was 0.02. As for A67G U100G A116C U122A A135G, the self-cleavage is 0.05. With U70C U72C C105U A117U U131A, the self-cleavage came to 0. The value for U70C U103C U130C was 0.01; that for U72G U124A A129G was 0.25; that for A78U A94G U108C U131C was 0.01. The value for A67G A90G A134G was 0.57; that for A67G A94G U103C was 1.37.

The values are drawn from the RNAGym collection of RNA variant scans (doi:10.7554/elife.90254).
